Data: PubChem BioAssay AID1508623 (National Center for Advancing Translational Sciences (NCATS), 2021)
The campaign covered roughly 48,000 compounds. About 450 (0.94%) were called active. Roughly 19% stayed inconclusive and do not appear here. Calls follow the shape of the dose curve; as a rule, active = well fitted inhibition curve with a large enough effect; inconclusive = small, poorly fitted or top-dose-only effect; inactive = no such curve, though single readings can be large or run the other way. Some of the results follow.

Assay: Primary qHTS for Identification of Small Molecule Inhibitors of Huntingtin Promoter Activity; also: nearly all actives have a fitted effect of over 50% in size
Details: HEK293 HTT promoter firefly luciferase reporter (activity 0% = vehicle and -100% = no light), 24 h; series mostly up to 57.5 µM; activity change, negative = inhibition: at the top concentration
Outline: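 Firefly luciferase signal from promoter-reporter HEK293 cells was scaled between vehicle (0%) and zero RLU (-100%). Compounds were tested at final concentrations of up to 57.5 uM over 24 h at 37 degrees C. PTC124 at 50 uM final served as control inhibitor.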

Activity change, negative = inhibition, inactive:
Cc1cc(=O)[nH]c2nnc(SCC(=O)NC(C)(C)C)n12 -5.51%
CCc1ccc(N=C2NC(=O)CC(C(=O)Nc3ccc(OC)cc3)S2)cc1 (configuration not stated) -6.19% [at 11.5 µM]
COc1cc2c(cc1OC)C(COc1ccccc1OC)N(C(=O)CC(C)C)CC2 (configuration not stated) -21.4%
CC(=O)N1CCc2cc(CNS(=O)(=O)c3ccc(F)cc3)ccc21 10.1%
CCc1ccc(-c2cn3c(n2)sc2cc(C(=O)NC4CCCCCC4)ccc23)cc1 -13.1%
O=C(NCc1cccc(Cl)c1)c1cc2c(s1)-c1ccccc1OC2 -4.95%
COCCc1nn2c(=O)cc(COC(=O)c3ccc4c(c3)OCO4)nc2s1 -2.19%
Cc1ccc(NC2=C(c3ccc(C(F)(F)F)cc3)C(=O)c3ccccc32)cc1C 20.9%
CC(=O)Nc1ccc(C(=O)CSc2nnc(-c3ccccc3)n2-c2ccccc2)cc1 -24.5%
Cc1ccc(-c2cc(C(=O)NCc3cnn(C)c3C)c3cc(Br)ccc3n2)cc1 17.8%
O=C(NC1CC1)c1ccc(Cn2c(SCc3cccc(F)c3)nc3cccnc32)cc1 -17.2%
O=C(Nc1ccc(Cl)cc1)C1CCN(c2nc3ccccc3nc2C(F)(F)F)CC1 1.35%
COc1ccccc1N1CCN(C(=O)c2ccc(CS(=O)c3ccccc3C)o2)CC1 (configuration not stated) -26.4%
CCS(=O)(=O)N1CCc2cc(C(=O)NCc3ccc(OC)cc3)ccc21 -2.51%
Cn1cc(S(=O)(=O)c2cccc(Cl)c2)c(=O)c2cc(F)c(N3CCCCCC3)cc21 -10%
O=C(O)P(=O)(O)O 5.74%
CCC(CC)C(=O)Nc1ccc(OCc2cc(=O)n3c4c(sc3n2)CCCC4)cc1 -14.2%
CCOc1ccc(NC(=O)c2ccc3c(SCC(=O)O)c4c(nc3c2)CCCC4)cc1 -39.5%
O=C(Nc1ccc(NC(=O)c2cc3ccccc3o2)cc1)c1ccccc1 0.241%
O=C(CN1CCN(S(=O)(=O)c2cc(Cl)ccc2Cl)CC1)Nc1cccc(F)c1 -24.7%
Cn1cc(S(=O)(=O)c2ccc(Cl)cc2)c(=O)c2cc(F)c(N3CCCCCC3)cc21 -8.55%
Fc1ccc(-c2nc(Nc3ccc(F)c(Cl)c3)nc3c2COc2ccccc2-3)cc1 -11%
CC(C(=O)Nc1cccc(C#N)c1)n1nc(-c2ccccc2)c2c(c1=O)CCCC2 (configuration not stated) -20.5%
CC1=C(C(=O)Nc2ccc(C)cc2C)C(c2ccccc2[N+](=O)[O-])n2ncc(C(=O)Nc3ccccc3)c2N1 (configuration not stated) 17.1%
CCOC(=O)C1CCCN(C(=O)c2ccc3c(c2)N(Cc2ccccc2)C(=O)c2ccccc2S3(=O)=O)C1 (configuration not stated) -0.805%
CCCCN(C)CCNC(=O)c1cc(-c2cccnc2)nc2ccc(S(=O)(=O)N3CCC(C)CC3)cc12 1.1%
Cc1ccn2c(c1)nc(=O)c1cc(S(=O)(=O)N3CCC(C)CC3)c(Cl)cc12 -10%
CN(Cc1ccccc1)c1nc(-c2ccc(F)cc2)cc(C(F)(F)F)n1 -17.7%
O=C(COc1ccccc1F)Nc1ccc(C(=O)OCc2cc(=O)n3nc(C4CC4)sc3n2)cc1 -10.6%
Cc1ccc(-c2cc3ncc(C(=O)c4cc([N+](=O)[O-])ccc4O)cn3n2)cc1 -6.66%
Cc1ccc(NC(=O)CCSCCc2ccccn2)cc1 -10.2%
CC1=C(C)C(=O)C(CCCCC#CCCCC#CCO)=C(C)C1=O -17.5%
COc1ccc(Br)cc1CNC(=O)CCCn1c(=O)c2cccn2c2ccccc21 -27.5%
CCC(C(=O)Nc1cccc(-c2cn3cccnc3n2)c1)c1ccccc1 (configuration not stated) -19.6%
CCC(Oc1ccccc1F)C(=O)Nc1c(C(=O)c2ccccc2)oc2ccccc12 (configuration not stated) -3.59%
CC(C)(C)OC(=O)N1CCC(c2c(C(=O)NCc3ccc4c(c3)OCO4)cnn2-c2ccc(F)cc2F)CC1 -26.6%
O=C(Nc1ccc(Cl)cc1)C1CCN(c2nc3ccccc3n3cccc23)CC1 -13%
CN(C)c1ccc(C(CNS(=O)(=O)c2ccc(Cl)cc2)N2CCCC2)cc1 (configuration not stated) -16.1%
CC1=C(C(=O)Nc2ccc(C)cc2C)C(c2ccccc2C)n2ncnc2N1 (configuration not stated) -43.8%
COc1ccc(CCNC(=O)NCc2noc3ccccc23)c(OC)c1 -14.8%
CC(C)NCC(O)c1ccc(NS(C)(=O)=O)cc1 (configuration not stated) 6.27%
Cc1cccc(-c2nc3c(C#N)c[nH]n3c2NC2CCCCC2)c1 8.82%
Cc1nn(-c2ccc3nncn3n2)c(C)c1CCC(=O)Nc1ccc(OC(F)(F)F)cc1 -12.9%
Cc1ccccc1CNC(=O)c1ccc(-n2c(C)cc3c2CCCC3)cc1 10.2%
COc1ccccc1CNC(=O)C1CCN(Cc2nc(-c3ccc(OC)c(OC)c3)oc2C)CC1 -8.91%
CCCN(CCC)C(=O)Cn1c(=O)n(Cc2ccc(C(=O)NCCc3ccc(OC)c(OC)c3)cc2)c(=O)c2ccccc21 -16.9%
CCCN(C(=O)c1cc2c(Cl)nc3ccccc3c2s1)c1cccc(C)c1 -18.2%
COCCNC(=O)c1ccc(Cn2c(SCC(=O)NC(C)C)nc3ccccc3c2=O)cc1 1.2%
COc1ccc(-c2cc3nc(C4CCN(C(=O)OC(C)(C)C)CC4)c(C(=O)Nc4cc(Cl)cc(Cl)c4)cn3n2)cc1 -5.18%
COc1ccc(CNC(=O)c2ccc3c(c2)N(Cc2ccccc2)C(=O)c2ccccc2S3(=O)=O)cc1 -11.5%
CCOc1ccccc1N(C)C(=O)c1nn(-c2ccc(C)cc2)c(=O)c2c1c1ccccc1n2C -1.34%
COc1cc(C=O)ccc1O 0.506%
COc1ccc(OC)c(NC(=O)c2csnn2)c1 2.93%
COCCCNC(=O)c1cc(-c2cccnc2)nc2ccccc12 -21.5%
CCOc1ccccc1-c1nnc(SCc2ccc(Cl)cc2)o1 -9.6%
COc1ccc(-n2c(SCC(=O)N3CCC(C)CC3)nc3c([nH]c4ccccc43)c2=O)cc1 -8.87%
CC1=C(C(=O)Nc2ccc(C)cc2C)C(c2sccc2C)n2ncnc2N1 (configuration not stated) -10.2%
CCOc1cccc(C2c3c(oc4ccccc4c3=O)C(=O)N2c2nc(C)c(C(=O)OC)s2)c1 (configuration not stated) -19.6% [at 11.5 µM]
COc1ccc2cccc(CCNC(C)=O)c2c1 -1.91%
Cc1ccc2occ(CC(=O)Nc3nnc(C(C)C)s3)c2c1 -29.7%
Cc1ccc(-n2ncc(C(=O)Nc3ccc(C)c(F)c3)c2C2CCN(C(=O)OC(C)(C)C)CC2)cc1C -1.97%
CCOc1cc(C2c3c(oc4ccccc4c3=O)C(=O)N2Cc2ccc3c(c2)OCO3)ccc1O (configuration not stated) 3.09%
Cc1ccc(CNC(=O)CCCCn2c(=O)c3ccccc3n(Cc3ccc(Cl)cc3)c2=O)cc1 -5.04%
CCC(C(=O)OCc1cc(=O)n2nc(CCOC)sc2n1)c1ccccc1 (configuration not stated) -12.5%
Cc1ccccc1NC(=O)c1nc(-c2ccncc2)no1 9.5%
Cc1ccc(NC(=O)Cn2c(CCC(=O)O)ccc2-c2cccs2)cc1 -28.4%
COc1cccc(N2CCN(c3nc4ccc(C(=O)c5ccccc5)cc4n4c(C)nnc34)CC2)c1 6.24%
Cc1cc(C)c2c(=O)cc(C(=O)Nc3ccc(S(=O)(=O)Nc4nc(C)cc(C)n4)cc3)oc2c1 14%
Cc1ccc(-c2cn3c(n2)sc2cc(C(=O)N4CCCCC4)ccc23)cc1 -29.4%
COC(=O)C(C)Sc1nc2c([nH]c3ccccc32)c(=O)n1-c1ccc(OC)cc1 (configuration not stated) -8.06%
O=C(Nc1ccc2nc(SCC(=O)N3CCCC3)sc2c1)c1ccc(F)cc1 -21.7%
COc1ccc(CNC(=O)CCCn2c(SCC(N)=O)nc3cc4c(cc3c2=O)OCO4)cc1 -23.3%
Cc1cc(Nc2cccc(Cl)c2C)n2nc(Cc3ccccc3)nc2n1 -28.3%
CCOc1ccccc1NC(=O)Cn1c(=O)n(Cc2ccccc2)c(=O)c2c(C)c(C(=O)N(C)C)sc21 -3.4%
CCN(CC)C(=O)CSc1nc2cc3c(cc2c(=O)n1Cc1ccc(C(=O)NCCc2ccc(OC)c(OC)c2)cc1)OCO3 -21.3%
COc1cc(Cl)c(C)cc1NC(=O)c1cn(CC(C)C)c(=O)c2cc(OC)c(OC)cc12 -7.34%
CC(C)OCCCNC(=O)CCCn1c(SCC(=O)c2ccc(Br)cc2)nc2c(sc3ccccc32)c1=O -14.5%
CC(NC(=O)c1ccccc1)c1nc2ccccc2n1Cc1ccc(Cl)cc1 (configuration not stated) 14.3%
COc1ccc(CNC(=O)c2cnn3c(C)c(Cc4ccc(F)cc4)c(C)nc23)cc1 -14.5%
Cc1cc(C)c(NC(=O)Cn2c(=O)n(CCCCC(=O)NCc3ccccc3Cl)c(=O)c3ccccc32)c(C)c1 0.0683%
COc1cc(CN(CC2CCCO2)C(=O)c2ccccc2F)cc(OC)c1OC (configuration not stated) 2.59%
Cc1ccc(Cl)cc1NC(=O)Cn1nc2c(cc1=O)CC(C)CC2 (configuration not stated) 2.11%
CCOc1ccc(NC(=O)CN2C(=O)COc3ccc(S(=O)(=O)Nc4ccccc4)cc32)cc1 -11%
Cc1ccc(OCCSc2nc3ccccc3n2CC(=O)N2CCOCC2)c(C)c1 -21%
COc1ccc(C(=O)Nc2ccc3nc4n(c(=O)c3c2)CCCCC4)cc1OC -5.4%
CCC(=O)N1CCc2cc(Br)cc(S(=O)(=O)N3CCC(C(=O)NC(C)(C)C)CC3)c21 16.6%
O=C(NNc1ncnc2c1cnn2-c1ccccc1)c1cccc(Cl)c1 -17.7%
CC(C)Cn1c(=O)c2ccccc2n2c(-c3cccc(Cl)c3)nnc12 -0.777%
COc1ccc(Cl)c(Cn2c(NCCN)nc3c2c(=O)n(C)c(=O)n3C)c1 -10.3%
COc1ccc(C(=O)NCc2nnnn2-c2ccc(C)c(C)c2)cc1 -16.1%
N#Cc1ccc(-c2cccs2)nc1SCc1ccc(Cl)cc1Cl -10.5%
CCOc1ccc(NC(=O)N2CCOc3ccccc32)cc1 89.4%
CCc1ccccc1NC(=O)CSc1nnc(-c2nonc2NC(C)=O)n1C -22.1%
Cc1ccc(Cl)cc1Nc1nc2ccccc2n2c(C)nnc12 -9.19%
CCCOc1ccccc1Cn1c(=O)sc2ccccc21 -16.8%
CN(CCOc1ccc(NS(C)(=O)=O)cc1)CCc1ccc(NS(C)(=O)=O)cc1
CCCCc1nn2c(=O)cc(COC(=O)c3ccccc3NC(=O)C(C)(C)C)nc2s1 -12.7%
